Data as given in patent US20230416360A1 (SIMCERE ZAIMING PHARMACEUTICAL, published 2023).

Tests used:
[1] = target: T1, human CD22-ECD-His (human, UniProt P20273 20-687); test: ELISA on coated human CD22-ECD-His
T1 construct: Made in HEK293E, purified on nickel column; also called hCD22-ECD-His; recombinant human CD22-ECD His; not shown: His tag
T1 sequence: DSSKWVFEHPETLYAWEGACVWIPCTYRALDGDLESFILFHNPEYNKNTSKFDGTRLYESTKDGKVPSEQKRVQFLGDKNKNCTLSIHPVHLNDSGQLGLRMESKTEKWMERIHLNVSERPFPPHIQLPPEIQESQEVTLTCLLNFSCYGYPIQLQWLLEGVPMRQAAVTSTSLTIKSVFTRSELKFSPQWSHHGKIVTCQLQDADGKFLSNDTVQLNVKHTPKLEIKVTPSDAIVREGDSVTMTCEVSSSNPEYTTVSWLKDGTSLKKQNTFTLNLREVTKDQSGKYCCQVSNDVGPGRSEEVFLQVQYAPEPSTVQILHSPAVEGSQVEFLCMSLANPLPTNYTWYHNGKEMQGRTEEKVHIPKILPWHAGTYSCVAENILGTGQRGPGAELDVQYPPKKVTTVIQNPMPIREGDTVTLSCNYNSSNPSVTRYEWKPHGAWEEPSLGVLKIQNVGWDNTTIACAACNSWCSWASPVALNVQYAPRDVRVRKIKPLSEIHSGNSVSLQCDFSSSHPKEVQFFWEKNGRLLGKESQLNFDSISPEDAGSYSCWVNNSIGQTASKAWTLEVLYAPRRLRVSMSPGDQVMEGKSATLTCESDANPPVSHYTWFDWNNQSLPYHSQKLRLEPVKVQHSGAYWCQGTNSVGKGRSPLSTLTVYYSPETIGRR

[2] = target: T2, human CD22 domain1-4-His (human, UniProt P20273 20-425); test: ELISA on coated human CD22 domain1-4-His
T2 construct: Distal end of membrane fragment; also called hCD22 domain1-4-His; not shown: His tag
T2 sequence: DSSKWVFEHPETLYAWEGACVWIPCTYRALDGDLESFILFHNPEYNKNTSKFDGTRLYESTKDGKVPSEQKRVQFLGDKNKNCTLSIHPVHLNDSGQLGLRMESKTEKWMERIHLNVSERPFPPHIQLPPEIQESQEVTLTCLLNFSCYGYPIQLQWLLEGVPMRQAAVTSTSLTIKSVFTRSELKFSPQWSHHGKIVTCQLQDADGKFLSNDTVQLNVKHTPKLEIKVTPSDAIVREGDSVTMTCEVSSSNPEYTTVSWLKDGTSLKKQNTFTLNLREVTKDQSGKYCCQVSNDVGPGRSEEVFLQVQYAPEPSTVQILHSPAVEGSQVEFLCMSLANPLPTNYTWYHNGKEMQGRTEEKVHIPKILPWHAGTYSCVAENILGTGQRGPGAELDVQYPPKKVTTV

B1: HA22 scFv-hFc (Fc fusion)
chain: EVQLVESGGGLVKPGGSLKLSCAASGFAFSIYDMSWVRQTPEKCLEWVAYISSGGGTTYYPDTVKGRFTISRDNAKNTLYLQMSSLKSEDTAMYYCARHSGYGTHWGVLFAYWGQGTLVTVSAGGGGSGGGGSGGGGSDIQMTQTTSSLSASLGDRVTISCRASQDISNYLNWYQQKPDGTVKLLIYYTSILHSGVPSRFSGSGSGTDYSLTISNLEQEDFATYFCQQGNTLPWTFGCGTKLEIK[human IgG1 Fc with changes cut from this listing]
EC50 (read off the curve) [1]: ~0.3 nM
EC50 (read off the curve) [2]: ~0.5 nM
